Source: the supplement of paper PMC9262897, “Low-cost anti-mycobacterial drug discovery using engineered E. coli” (Nature Communications, 2022)
The source gives many values for each of these; only a part stands here.

Key:
E. coli TESEC Mtb Alr = assay: growth (OD600 after 10 h, mean); higher = more growth
Method: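 TESEC Mtb Alr E. coli grown in a two-dimensional dilution series of drug (µM) and arabinose (12 to 1e8 nM). Growth is read as OD600 after 10 h; values are means of 3 biological replicates.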

[1] = system: E. coli TESEC strain (Mtb target enzyme); assay: growth (OD600 after 10 h); higher = more growth
Method: (§1)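 Chemical-genetic validation profiles: TESEC strains (Mtb Asd or DapB, arabinose-inducible) or the wild-type control grown in a two-dimensional dilution series of drug (µM) and arabinose. Growth is read as OD600 after 10 h in triplicate.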

[2] = system: E. coli wild-type control; assay: growth (OD600 after 10 h); higher = more growth
Method: as §1

CC(C)c1ccc2oc3nc(N)c(C(=O)O)cc3c(=O)c2c1 [Amlexanox]
growth, E. coli TESEC Mtb Alr
Details | drug 250 µM | drug 500 µM | drug 1000 µM | drug 2000 µM
arabinose 12 nM | 0.269 | 0.193 | 0.113 | 0.0856
arabinose 24 nM | 0.271 | 0.189 | 0.118 | 0.0846
arabinose 48 nM | 0.261 | 0.194 | 0.118 | 0.081
arabinose 95 nM | 0.263 | 0.199 | 0.12 | 0.0809
arabinose 191 nM | 0.259 | 0.195 | 0.116 | 0.083
arabinose 381 nM | 0.265 | 0.192 | 0.116 | 0.0831
arabinose 763 nM | 0.259 | 0.199 | 0.119 | 0.0831
arabinose 1526 nM | – | 0.189 | 0.117 | 0.0832
arabinose 3052 nM | – | 0.193 | 0.118 | 0.0845
arabinose 6104 nM | – | 0.197 | 0.119 | 0.0819
arabinose 12207 nM | – | 0.187 | 0.12 | 0.0829
arabinose 24414 nM | 0.272 | 0.188 | 0.125 | 0.0827
arabinose 48828 nM | 0.265 | 0.188 | 0.135 | 0.0828
arabinose 97656 nM | 0.249 | 0.178 | 0.137 | 0.0839
arabinose 195312 nM | 0.242 | 0.173 | 0.127 | 0.0848
arabinose 390625 nM | 0.233 | 0.164 | 0.129 | 0.0902
arabinose 781250 nM | 0.221 | 0.165 | 0.129 | 0.0902
arabinose 1562500 nM | 0.218 | 0.16 | 0.132 | 0.0844
arabinose 3125000 nM | 0.209 | 0.161 | 0.129 | 0.0872
arabinose 6250000 nM | 0.212 | 0.152 | 0.127 | 0.0928
arabinose 12500000 nM | 0.197 | 0.151 | 0.125 | 0.0954
arabinose 25000000 nM | 0.19 | 0.146 | 0.122 | 0.0879
arabinose 50000000 nM | 0.177 | 0.136 | 0.117 | 0.0953
arabinose 100000000 nM | 0.128 | 0.112 | 0.0975 | 0.0947

N[C@@H]1CONC1=O [D-cycloserine]
growth, E. coli TESEC Mtb Alr
Details | drug 125 µM | drug 250 µM | drug 500 µM | drug 1000 µM
arabinose 12 nM | 0.0481 | 0.048 | 0.0547 | 0.0492
arabinose 24 nM | 0.0498 | 0.0483 | 0.0552 | 0.0498
arabinose 48 nM | 0.0501 | 0.0489 | 0.0483 | 0.0485
arabinose 95 nM | 0.049 | 0.0486 | 0.0499 | 0.0486
arabinose 191 nM | 0.0483 | 0.049 | 0.0489 | 0.0478
arabinose 381 nM | 0.0506 | 0.0478 | 0.0488 | 0.0496
arabinose 763 nM | 0.048 | 0.0485 | 0.0482 | 0.0488
arabinose 1526 nM | – | 0.0481 | 0.049 | 0.0489
arabinose 3052 nM | – | 0.0483 | 0.0478 | 0.0531
arabinose 6104 nM | – | 0.0487 | 0.0487 | 0.0485
arabinose 12207 nM | – | 0.0477 | 0.0471 | 0.0479
arabinose 24414 nM | 0.313 | 0.0498 | 0.0486 | 0.0501
arabinose 48828 nM | 0.307 | 0.068 | 0.0542 | 0.054
arabinose 97656 nM | 0.319 | 0.0894 | 0.0525 | 0.0532
arabinose 195312 nM | 0.33 | 0.125 | 0.0549 | 0.053
arabinose 390625 nM | 0.336 | 0.163 | 0.061 | 0.0573
arabinose 781250 nM | 0.319 | 0.194 | 0.0708 | 0.0575
arabinose 1562500 nM | 0.294 | 0.207 | 0.0841 | 0.0595
arabinose 3125000 nM | 0.273 | 0.202 | 0.0989 | 0.0624
arabinose 6250000 nM | 0.254 | 0.207 | 0.122 | 0.0658
arabinose 12500000 nM | 0.248 | 0.212 | 0.144 | 0.0704
arabinose 25000000 nM | 0.234 | 0.221 | 0.166 | 0.0771
arabinose 50000000 nM | 0.205 | 0.207 | 0.182 | 0.0986
arabinose 100000000 nM | 0.158 | 0.169 | 0.157 | 0.125

N=C(N)c1ccc(OCCCCCOc2ccc(C(=N)N)cc2)cc1 [Pentamidine] (TESEC target enzyme: Mtb DapB)
growth
Details | drug 3.5 µM | drug 7.8 µM | drug 17.6 µM | drug 39.5 µM | drug 88.9 µM | drug 200 µM
[1], arabinose 15560 nM | 0.102 | 0.137 | 0.0988 | 0.139 | 0.066 | 0.0484
[1], arabinose 28008 nM | 0.185 | 0.171 | 0.146 | 0.103 | 0.0733 | 0.0485
[1], arabinose 50414 nM | 0.198 | 0.167 | 0.16 | 0.106 | 0.056 | 0.0472
[1], arabinose 90744 nM | 0.183 | 0.183 | 0.157 | 0.175 | 0.056 | 0.0495
[1], arabinose 163340 nM | 0.216 | 0.189 | 0.184 | 0.157 | 0.0582 | 0.0488
[1], arabinose 294012 nM | 0.239 | 0.216 | 0.209 | 0.173 | 0.0684 | 0.0485
[1], arabinose 529221 nM | 0.251 | 0.248 | 0.218 | 0.162 | 0.0683 | 0.0494
[1], arabinose 952599 nM | 0.252 | 0.192 | 0.18 | 0.202 | 0.102 | 0.05
[1], arabinose 1714678 nM | 0.184 | 0.23 | 0.214 | 0.198 | 0.127 | 0.0486
[1], arabinose 3086420 nM | 0.154 | 0.136 | 0.139 | 0.17 | 0.15 | 0.0575
[1], arabinose 5555556 nM | 0.138 | 0.134 | 0.14 | 0.13 | 0.142 | 0.053
[1], arabinose 10000000 nM | 0.146 | 0.127 | 0.155 | 0.141 | 0.143 | 0.0592
[2], arabinose 15560 nM | – | – | – | – | 0.185 | 0.066
[2], arabinose 28008 nM | – | – | – | – | 0.189 | 0.0558
[2], arabinose 50414 nM | – | – | – | – | 0.155 | 0.0573
[2], arabinose 90744 nM | – | – | – | – | 0.21 | 0.0557
[2], arabinose 163340 nM | – | – | – | – | 0.185 | 0.0557
[2], arabinose 294012 nM | – | – | – | – | 0.198 | 0.0579
[2], arabinose 529221 nM | – | – | – | – | 0.178 | 0.0639
[2], arabinose 952599 nM | – | – | – | – | – | 0.053
[2], arabinose 1714678 nM | – | – | – | – | – | 0.0555
[2], arabinose 3086420 nM | – | – | – | – | – | 0.0637
[2], arabinose 5555556 nM | – | – | – | – | – | 0.053
[2], arabinose 10000000 nM | – | – | – | – | 0.159 | 0.0674
